This is one part of the list. No stated cut-off is given here; in the data, active = 3.2 or more and inactive = the rest. Only a few entries rise above the background.
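Further: displayed peptides selected on beads carrying the immobilized SH2 domain, with library peptides lacking any tyrosine serving as negative controls.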

The first assay concerns the target SHP2 C-SH2 domain E139D. Put plainly: enrichment score (SH2-bound / input frequency) (ratio); bacterial display of known human phosphotyrosine sites (pTyr-Var adds point mutants) read by sequencing; higher = stronger binding; tyrosines were phosphorylated by kinases first. As to conditions: peptide library: pTyr-Var.
Regarding EFTPLYPMLFG [SCLY_Y280], the enrichment score was inactive: 1.07.
Still for that read-out and setting: under CLAQRYLIWEC [SCN5A_Y694_R689C] stands active: 3.25.
On the same count and under the same terms, the value for TVNIRYLLFPS [SERAC1_Y548_S543T] was active: 3.94.
For the molecule LVMFIYVIFGM [SCN1A_Y1684_A1685V], the enrichment score was inactive: 0.817.
On the same count and under the same terms, the value for EEQKRYFNAMK [SCN5A_Y1494_K1493R_YF] was inactive: 0.58; that for EQKKNYNAMKK [SCN5A_Y1495_Y1494N] was inactive: 1.18; that for FMMMRYSQNIR [SDAD1_Y656_V660I] was inactive: 2.15.
Still for that read-out and setting: the value for KKRSSYGNSSD [SELENOK_Y52_R50S] was inactive: 0.311.
Regarding GSESDYIVMPN [SCARB1_Y133], the enrichment score is inactive: 0.577.
Take EQKKYYNAMKN [SCN5A_Y1495_K1500N]: the enrichment score is inactive: 0.699.
Still for that read-out and setting: the value for ETKTPYTVILI [SBDS_Y128_R126T] was inactive: 0.498; that for KQINDYVEKGT [SERPINA1_Y184] was inactive: 0.747.
Still for that read-out and setting: the value for NDTAGYFIIGG [SEL1L3_Y399] was inactive: 0.832; that for LVMFFYAIFGM [SCN1A_Y1684_I1683F] was inactive: 2.8.
Still for that read-out and setting: the value for RPSRQYATLDV [SCAMP3_Y35] was inactive: 0.668.
Consider ITQRAYRRHLL [SCN1A_Y1926_I1922T], for which the enrichment score was inactive: 0.195.
On to LVMFIYAIFWM [SCN1A_Y1684_G1688W], for which the enrichment score was inactive: 1.84.
The same measure, in the same setting: under RAYRHYLLKQK [SCN2A_Y1919_R1918H] stands inactive: 0.313.

Another assay deals with SHP2 C-SH2 domain wild-type. The description is as above. The settings on record: peptide library: pTyr-Var.
In the case of EFTPLYPMLFG [SCLY_Y280], the enrichment score was inactive: 1.23.
On the same count and under the same terms, under CLAQRYLIWEC [SCN5A_Y694_R689C] stands inactive: 3.01; under TVNIRYLLFPS [SERAC1_Y548_S543T], inactive: 3.
The same measure, in the same setting: under LVMFIYVIFGM [SCN1A_Y1684_A1685V] stands inactive: 0.794; under EEQKRYFNAMK [SCN5A_Y1494_K1493R_YF], inactive: 0.489.
Turning to EQKKNYNAMKK [SCN5A_Y1495_Y1494N], the enrichment score is inactive: 0.966.
As for FMMMRYSQNIR [SDAD1_Y656_V660I], the enrichment score is inactive: 1.7.
With KKRSSYGNSSD [SELENOK_Y52_R50S], the enrichment score is inactive: 0.288.
On the same count and under the same terms, the value for GSESDYIVMPN [SCARB1_Y133] was inactive: 0.502; that for EQKKYYNAMKN [SCN5A_Y1495_K1500N] was inactive: 0.678; that for ETKTPYTVILI [SBDS_Y128_R126T] was inactive: 0.874.
On the same count and under the same terms, under KQINDYVEKGT [SERPINA1_Y184] stands inactive: 0.556; under NDTAGYFIIGG [SEL1L3_Y399], inactive: 0.801.
The same measure, in the same setting: the value for LVMFFYAIFGM [SCN1A_Y1684_I1683F] was inactive: 2.19.
For RPSRQYATLDV [SCAMP3_Y35], the enrichment score was inactive: 2.34.
As to ITQRAYRRHLL [SCN1A_Y1926_I1922T], the enrichment score is inactive: 0.252.
On the same count and under the same terms, the value for LVMFIYAIFWM [SCN1A_Y1684_G1688W] was inactive: 1.4; that for RAYRHYLLKQK [SCN2A_Y1919_R1918H] was inactive: 0.274.

In another assay the target is SHP2 N-SH2 domain L43F. Described as above. As to conditions: peptide library: pTyr-Var.
Turning to EFTPLYPMLFG [SCLY_Y280], the enrichment score is inactive: 0.983.
For CLAQRYLIWEC [SCN5A_Y694_R689C], the enrichment score is active: 3.49.
The same measure, in the same setting: under TVNIRYLLFPS [SERAC1_Y548_S543T] stands active: 3.42.
Still for that read-out and setting: the value for LVMFIYVIFGM [SCN1A_Y1684_A1685V] was inactive: 0.998.
Same read-out and setting: the value for EEQKRYFNAMK [SCN5A_Y1494_K1493R_YF] was inactive: 0.555; that for EQKKNYNAMKK [SCN5A_Y1495_Y1494N] was inactive: 0.902.
Turning to FMMMRYSQNIR [SDAD1_Y656_V660I], the enrichment score is inactive: 2.03.
Same read-out and setting: under KKRSSYGNSSD [SELENOK_Y52_R50S] stands inactive: 0.302; under GSESDYIVMPN [SCARB1_Y133], inactive: 0.638.
The same measure, in the same setting: under EQKKYYNAMKN [SCN5A_Y1495_K1500N] stands inactive: 0.746; under ETKTPYTVILI [SBDS_Y128_R126T], inactive: 0.527; under KQINDYVEKGT [SERPINA1_Y184], inactive: 0.7.
The same measure, in the same setting: under NDTAGYFIIGG [SEL1L3_Y399] stands inactive: 0.848; under LVMFFYAIFGM [SCN1A_Y1684_I1683F], inactive: 2.62; under RPSRQYATLDV [SCAMP3_Y35], inactive: 1.49.
ITQRAYRRHLL [SCN1A_Y1926_I1922T]: the enrichment score is inactive: 0.202.
The same measure, in the same setting: under LVMFIYAIFWM [SCN1A_Y1684_G1688W] stands inactive: 1.51; under RAYRHYLLKQK [SCN2A_Y1919_R1918H], inactive: 0.271.

A further assay addresses SHP2 N-SH2 domain T42A. The description is as above. The settings on record: peptide library: pTyr-Var.
On to EFTPLYPMLFG [SCLY_Y280], for which the enrichment score is inactive: 1.04.
The same measure, in the same setting: under CLAQRYLIWEC [SCN5A_Y694_R689C] stands inactive: 3.06.
Consider TVNIRYLLFPS [SERAC1_Y548_S543T], for which the enrichment score was inactive: 2.94.
Still for that read-out and setting: under LVMFIYVIFGM [SCN1A_Y1684_A1685V] stands inactive: 0.598; under EEQKRYFNAMK [SCN5A_Y1494_K1493R_YF], inactive: 0.693; under EQKKNYNAMKK [SCN5A_Y1495_Y1494N], inactive: 1.01.
The same measure, in the same setting: the value for FMMMRYSQNIR [SDAD1_Y656_V660I] was inactive: 1.89; that for KKRSSYGNSSD [SELENOK_Y52_R50S] was inactive: 0.289.
On the same count and under the same terms, under GSESDYIVMPN [SCARB1_Y133] stands inactive: 0.5.
EQKKYYNAMKN [SCN5A_Y1495_K1500N]: the enrichment score was inactive: 0.717.
The same measure, in the same setting: under ETKTPYTVILI [SBDS_Y128_R126T] stands inactive: 1.28; under KQINDYVEKGT [SERPINA1_Y184], inactive: 0.624.
For the molecule NDTAGYFIIGG [SEL1L3_Y399], the enrichment score is inactive: 1.02.
The same measure, in the same setting: under LVMFFYAIFGM [SCN1A_Y1684_I1683F] stands inactive: 2.19; under RPSRQYATLDV [SCAMP3_Y35], active: 4.43.
Same read-out and setting: the value for ITQRAYRRHLL [SCN1A_Y1926_I1922T] was inactive: 0.313; that for LVMFIYAIFWM [SCN1A_Y1684_G1688W] was inactive: 1.65.
On the same count and under the same terms, the value for RAYRHYLLKQK [SCN2A_Y1919_R1918H] was inactive: 0.286.

A further assay deals with SHP2 N-SH2 domain T52S. The description is as above. The settings on record: peptide library: pTyr-Var.
For the molecule EFTPLYPMLFG [SCLY_Y280], the enrichment score is inactive: 1.07.
Still for that read-out and setting: under CLAQRYLIWEC [SCN5A_Y694_R689C] stands inactive: 2.68; under TVNIRYLLFPS [SERAC1_Y548_S543T], active: 3.39.
Still for that read-out and setting: under LVMFIYVIFGM [SCN1A_Y1684_A1685V] stands inactive: 1.07.
With EEQKRYFNAMK [SCN5A_Y1494_K1493R_YF], the enrichment score was inactive: 0.801.
Same read-out and setting: under EQKKNYNAMKK [SCN5A_Y1495_Y1494N] stands inactive: 1.23; under FMMMRYSQNIR [SDAD1_Y656_V660I], inactive: 1.97.
On the same count and under the same terms, the value for KKRSSYGNSSD [SELENOK_Y52_R50S] was inactive: 0.283.
The same measure, in the same setting: the value for GSESDYIVMPN [SCARB1_Y133] was inactive: 0.542; that for EQKKYYNAMKN [SCN5A_Y1495_K1500N] was inactive: 0.784.
As for ETKTPYTVILI [SBDS_Y128_R126T], the enrichment score is inactive: 0.605.
Same read-out and setting: under KQINDYVEKGT [SERPINA1_Y184] stands inactive: 0.938; under NDTAGYFIIGG [SEL1L3_Y399], inactive: 0.994; under LVMFFYAIFGM [SCN1A_Y1684_I1683F], inactive: 2.11.
The same measure, in the same setting: the value for RPSRQYATLDV [SCAMP3_Y35] was inactive: 1.78; that for ITQRAYRRHLL [SCN1A_Y1926_I1922T] was inactive: 0.27; that for LVMFIYAIFWM [SCN1A_Y1684_G1688W] was inactive: 2.38.
RAYRHYLLKQK [SCN2A_Y1919_R1918H]: the enrichment score was inactive: 0.339.

A further assay addresses SHP2 N-SH2 domain wild-type. The description is as above. The settings on record: peptide library: pTyr-Var.
As for EFTPLYPMLFG [SCLY_Y280], the enrichment score is inactive: 1.11.
The same measure, in the same setting: under CLAQRYLIWEC [SCN5A_Y694_R689C] stands active: 3.83.
Same read-out and setting: under TVNIRYLLFPS [SERAC1_Y548_S543T] stands inactive: 2.95.
LVMFIYVIFGM [SCN1A_Y1684_A1685V]: the enrichment score is inactive: 0.943.
The same measure, in the same setting: under EEQKRYFNAMK [SCN5A_Y1494_K1493R_YF] stands inactive: 0.489.
As to EQKKNYNAMKK [SCN5A_Y1495_Y1494N], the enrichment score is inactive: 1.08.
On the same count and under the same terms, under FMMMRYSQNIR [SDAD1_Y656_V660I] stands inactive: 1.78; under KKRSSYGNSSD [SELENOK_Y52_R50S], inactive: 0.358; under GSESDYIVMPN [SCARB1_Y133], inactive: 0.594.
The same measure, in the same setting: the value for EQKKYYNAMKN [SCN5A_Y1495_K1500N] was inactive: 0.698; that for ETKTPYTVILI [SBDS_Y128_R126T] was inactive: 0.711; that for KQINDYVEKGT [SERPINA1_Y184] was inactive: 0.853.
Same read-out and setting: the value for NDTAGYFIIGG [SEL1L3_Y399] was inactive: 1.03; that for LVMFFYAIFGM [SCN1A_Y1684_I1683F] was inactive: 1.84; that for RPSRQYATLDV [SCAMP3_Y35] was inactive: 1.11.
With ITQRAYRRHLL [SCN1A_Y1926_I1922T], the enrichment score was inactive: 0.262.
Still for that read-out and setting: the value for LVMFIYAIFWM [SCN1A_Y1684_G1688W] was inactive: 1.18; that for RAYRHYLLKQK [SCN2A_Y1919_R1918H] was inactive: 0.212.

These data come from the supplement of paper PMC10369915.
